Experimental data taken from publication PMC10470960.
Substitutions are numbered along the chain they refer to. These are yes or no findings as the source states them, for the method shown. Some results given as binding are weak or reduced against the parent protein; the word gives no strength. Where a sequence is shown, tags or fusion partners need not be part of it.

Legend:
Assay in all cases: two-hybrid; one-hybrid assay: Kar4p-Gal4 DNA-binding domain recruits endogenous Ste12p to drive the HIS3 reporter in PJ69-4A; 10-fold serial dilutions on SC-HIS with 3 uM alpha-factor, 30 degrees; graded ++++ to -
[1] = biological target: T1, Kar4p ΔP281V282 fused to the Gal4p DNA-binding domain (S. cerevisiae) (UniProt P25583)
T1 sequence: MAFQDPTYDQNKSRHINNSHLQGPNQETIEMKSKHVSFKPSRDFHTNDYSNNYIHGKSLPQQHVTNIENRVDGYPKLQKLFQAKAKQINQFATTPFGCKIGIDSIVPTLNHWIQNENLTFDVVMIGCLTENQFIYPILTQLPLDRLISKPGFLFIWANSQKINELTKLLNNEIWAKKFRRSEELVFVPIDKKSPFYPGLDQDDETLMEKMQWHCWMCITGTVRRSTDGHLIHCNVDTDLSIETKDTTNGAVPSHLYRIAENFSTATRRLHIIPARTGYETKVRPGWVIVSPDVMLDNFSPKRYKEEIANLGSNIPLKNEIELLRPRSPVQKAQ

[2] = biological target: T2, Kar4p Q132K fused to the Gal4p DNA-binding domain (S. cerevisiae) (UniProt P25583)
T2 sequence: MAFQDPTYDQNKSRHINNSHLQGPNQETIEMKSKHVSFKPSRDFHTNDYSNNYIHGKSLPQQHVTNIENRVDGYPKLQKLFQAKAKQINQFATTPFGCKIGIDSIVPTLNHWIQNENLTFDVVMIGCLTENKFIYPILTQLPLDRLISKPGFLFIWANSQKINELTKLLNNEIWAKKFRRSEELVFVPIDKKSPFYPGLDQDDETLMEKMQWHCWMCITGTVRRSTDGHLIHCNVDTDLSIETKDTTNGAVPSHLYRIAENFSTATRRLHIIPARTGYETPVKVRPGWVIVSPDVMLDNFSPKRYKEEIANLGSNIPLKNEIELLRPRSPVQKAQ

[3] = biological target: T3, Kar4p G126A fused to the Gal4p DNA-binding domain (S. cerevisiae) (UniProt P25583)
T3 sequence: T2 sequence with G126A, K132Q

[4] = biological target: T4, Kar4p T264P fused to the Gal4p DNA-binding domain (S. cerevisiae) (UniProt P25583)
T4 sequence: T2 sequence with K132Q, T264P

[5] = biological target: T5, Kar4p P273L fused to the Gal4p DNA-binding domain (S. cerevisiae) (UniProt P25583)
T5 sequence: T2 sequence with K132Q, P273L

[6] = biological target: T6, Kar4p A310Stop fused to the Gal4p DNA-binding domain (S. cerevisiae) (UniProt P25583)
T6 sequence: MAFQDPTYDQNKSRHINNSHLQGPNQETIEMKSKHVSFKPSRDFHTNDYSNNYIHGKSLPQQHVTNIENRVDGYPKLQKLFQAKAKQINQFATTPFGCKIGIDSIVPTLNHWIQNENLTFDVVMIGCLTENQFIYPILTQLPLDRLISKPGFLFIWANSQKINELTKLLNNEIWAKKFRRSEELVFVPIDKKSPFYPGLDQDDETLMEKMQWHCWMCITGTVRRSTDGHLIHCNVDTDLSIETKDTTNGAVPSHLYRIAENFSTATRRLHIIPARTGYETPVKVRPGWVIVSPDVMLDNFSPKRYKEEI

B1: Ste12p (protein, UniProt P13574 1-688)
chain: MKVQITNSRTEEILKVQANNENDEVSKATPGEVEESLRLIGDLKFFLATAPVNWQENQIIRRYYLNSGQGFVSCVFWNNLYYITGTDIVKCCLYRMQKFGREVVQKKKFEEGIFSDLRNLKCGIDATLEQPKSEFLSFLFRNMCLKTQKKQKVFFWFSVAHDKLFADALERDLKRESLNQPSTTKPVNEPALSFSYDSSSDKPLYDQLLQHLDSRRPSSTTKSDNSPPKLESENFKDNELVTVTNQPLLGVGLMDDDAPESPSQINDFIPQKLIIEPNTLELNGLTEETPHDLPKNTAKGRDEEDFPLDYFPVSVEYPTEENAFDPFPPQAFTPAAPSMPISYDNVNERDSMPVNSLLNRYPYQLSVAPTFPVPPSSSRQHFMTNRDFYSSNNNKEKLVSPSDPTSYMKYDEPVMDFDESRPNENCTNAKSHNSGQQTKQHQLYSNNFQQSYPNGMVPGYYPKMPYNPMGGDPLLDQAFYGADDFFFPPEGCDNNMLYPQTATSWNVLPPQAMQPAPTYVGRPYTPNYRSTPGSAMFPYMQSSNSMQWNTAVSPYSSRAPSTTAKNYPPSTFYSQNINQYPRRRTVGMKSSQGNVPTGNKQSVGKSAKISKPLHIKTSAYQKQYKINLETKARPSAGDEDSAHPDKNKEISMPTPDSNTLVVQSEEGGAHSLEVDTNRRSDKNLPDAT
With B1 the binding [1] was “binds”, the binding [2] was “binds” and the binding [3] was “no binding”. The binding [4] was “binds”, the binding [5] was “no binding” and the binding [6] was “binds”.
